The values that follow come from the BET-seq Pho4 binding data (Le et al. 2018).

This is one part of the list. These are noisy estimates, calculated here from bound and input reads.

The target in the assay is T1, Pho4 (S. cerevisiae) (UniProt P07270).
T1 sequence: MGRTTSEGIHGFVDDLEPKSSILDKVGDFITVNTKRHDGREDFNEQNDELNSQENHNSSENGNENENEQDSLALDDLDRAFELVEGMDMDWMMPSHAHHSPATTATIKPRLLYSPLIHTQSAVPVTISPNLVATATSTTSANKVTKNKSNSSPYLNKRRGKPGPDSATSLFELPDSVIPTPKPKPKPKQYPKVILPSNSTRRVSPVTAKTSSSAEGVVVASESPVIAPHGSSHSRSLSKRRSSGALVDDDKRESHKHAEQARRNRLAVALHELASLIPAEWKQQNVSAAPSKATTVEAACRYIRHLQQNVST
Description: relative binding free energy (BET-seq); higher = weaker binding. The note with it: reference: library average.
Turning to CTGGACACGTGATATT, the “relative binding free energy” value was found to be 0.879 kJ/mol.

Turning to ACATTCACGTGGTAGG, the “relative binding free energy” value was 1.13 kJ/mol. In the case of TTGCGCACGTGGGTGG it was -1.05 kJ/mol; in that of ATGTTCACGTGACGAG, 1.8 kJ/mol; in that of GGGGGCACGTGAAGTG, 0.837 kJ/mol. Under CGGGGCACGTGCACGG stands -0.837 kJ/mol; under CATGTCACGTGCTAGG, 0.418 kJ/mol. In the case of ATGGGCACGTGTTGCT it was -0.335 kJ/mol. Regarding TGAGGCACGTGCATTT, the “relative binding free energy” value was -0.669 kJ/mol. For the sequence ATTTTCACGTGTAAGC, the “relative binding free energy” value was determined as 1.55 kJ/mol. Under TGTGTCACGTGTTTGG stands 0.167 kJ/mol; under AGTACCACGTGGGGCT, -0.753 kJ/mol; under AGTGCCACGTGGGGTT, -0.837 kJ/mol. In the case of AGCGGCACGTGGTTGC it was -0.377 kJ/mol. In the case of TAGTACACGTGAGAGG it was 0.377 kJ/mol. For the sequence ACTGGCACGTGGGCGG, the “relative binding free energy” value was -1.09 kJ/mol. Under CGTTGCACGTGAAAGG stands 0.92 kJ/mol.

Consider AAGTCCACGTGGTGGA, for which the “relative binding free energy” value turned out to be 0.46 kJ/mol.

Take CTGAGCACGTGGGGAG: the “relative binding free energy” value is -1.05 kJ/mol. Under GGACGCACGTGATATG stands 0.46 kJ/mol; under TGTGCCACGTGGTTGC, -0.753 kJ/mol; under AAGGTCACGTGTCATG, 0.753 kJ/mol. Under AAGGTCACGTGGTGCA stands 0.167 kJ/mol; under CTTGACACGTGAAGGT, 1.17 kJ/mol; under CGTTACACGTGTAGGT, 0.502 kJ/mol. Under TTTGTCACGTGTAAAT stands 0.879 kJ/mol. Turning to CTTATCACGTGAGGTA, the “relative binding free energy” value came out at 0.795 kJ/mol. Under TGCTGCACGTGGTATT stands -0.46 kJ/mol; under CTTAGCACGTGTTCGT, -0.711 kJ/mol; under TTGGTCACGTGGTCTA, 0.293 kJ/mol. On to TGTTACACGTGCTTTG, for which the “relative binding free energy” value is 0.377 kJ/mol. Regarding AGCGTCACGTGGGCGG, the “relative binding free energy” value is -0.251 kJ/mol. As for TAGAACACGTGGTGAG, the “relative binding free energy” value is -0.167 kJ/mol. In the case of AGGGGCACGTGATAGC it was -0.544 kJ/mol. In the case of TTGTACACGTGCCGTG it was 0.126 kJ/mol.

For TTGCGCACGTGTTCTG, the “relative binding free energy” value is -0.377 kJ/mol. Under GTTTACACGTGAGTCT stands 1.26 kJ/mol; under AGGAACACGTGGGTGG, -0.586 kJ/mol. In the case of AATGGCACGTGAGGGT, the “relative binding free energy” value came out at 0.544 kJ/mol. Under ACCGTCACGTGTTGGG stands 0.753 kJ/mol; under GGTTTCACGTGAGGTC, 2.3 kJ/mol; under TTGGTCACGTGGGCTG, 0.167 kJ/mol. In the case of AGTGCCACGTGGGGGT it was -1.09 kJ/mol. In the case of ATTAGCACGTGTTGTA it was -0.544 kJ/mol.

Take GGAGGCACGTGGAGGA: the “relative binding free energy” value was -0.711 kJ/mol.

For GGTTTCACGTGTTTCG, the “relative binding free energy” value worked out at 1.46 kJ/mol. Under ATTTTCACGTGATATT stands 0.92 kJ/mol; under GTCAGCACGTGAGTGG, 0.586 kJ/mol; under TGTGACACGTGCTGAT, -0.167 kJ/mol. Take TCAGGCACGTGGCTTG: the “relative binding free energy” value was -0.209 kJ/mol. Under GCGCGCACGTGGTGTG stands -1.21 kJ/mol; under GGTGGCACGTGATCTA, 0.209 kJ/mol. In the case of TTGGACACGTGGTCGT it was -0.377 kJ/mol. In the case of GTAGACACGTGGGTTT it was -0.46 kJ/mol; in that of TTGTTCACGTGCGTTC, 1.09 kJ/mol. As to GTTGACACGTGGAAGT, the “relative binding free energy” value stood at 0.586 kJ/mol. Under GGCGTCACGTGGTAAT stands 0.209 kJ/mol; under GGTCGCACGTGTGGCG, 0.209 kJ/mol. In the case of TTTGACACGTGAGTTT it was 1.05 kJ/mol; in that of TTGATCACGTGAAGAA, 2.3 kJ/mol.

As for CGTTTCACGTGAATAG, the “relative binding free energy” value stood at 1.34 kJ/mol. Under AGGGGCACGTGGAGAT stands -0.293 kJ/mol; under GATTTCACGTGTCTGT, 1.55 kJ/mol. Under GTAGCCACGTGAGTGG stands 1.51 kJ/mol; under GGACACACGTGTTGGT, 0.335 kJ/mol; under TCAGCCACGTGAGGGT, 1.21 kJ/mol. Under GTACGCACGTGATTGT stands 0.293 kJ/mol. Take TAGGACACGTGTGGCT: the “relative binding free energy” value amounted to 0.251 kJ/mol. Under TGATACACGTGAGTGT stands 1 kJ/mol; under AAGTACACGTGGGTGT, -0.753 kJ/mol; under TTTAACACGTGCAGGG, -0.0418 kJ/mol.

As for CTGAGCACGTGTAGGT, the “relative binding free energy” value was -0.167 kJ/mol. In the case of GTTAACACGTGTTGCT it was 0.293 kJ/mol; in that of GGTACCACGTGGTGCG, -0.711 kJ/mol. Under TGTTTCACGTGAAATT stands 1.84 kJ/mol; under CTGATCACGTGGGATG, 0.544 kJ/mol; under TTTGTCACGTGTGTAC, 1 kJ/mol. In the case of ATTTGCACGTGCAGCT it was 0.209 kJ/mol; in that of ATGGACACGTGGGAAT, -0.126 kJ/mol. With GGAGGCACGTGTGCAG, the “relative binding free energy” value is -0.251 kJ/mol. Turning to TGCGACACGTGAGGGG, the “relative binding free energy” value stood at 1.09 kJ/mol. In the case of ATGTTCACGTGCTGCG it was 0.962 kJ/mol. In the case of TTTTGCACGTGCGCAG it was 0.167 kJ/mol; in that of GGGAGCACGTGCTGCG, -0.711 kJ/mol. Under TGGTGCACGTGCGTGT stands -0.502 kJ/mol. As to ATGTTCACGTGTTAAA, the “relative binding free energy” value amounted to 1.34 kJ/mol. In the case of CTGGGCACGTGATGCT it was 0.335 kJ/mol; in that of GCTGTCACGTGATTGT, 0.377 kJ/mol; in that of AGTGTCACGTGCGTTG, -0.293 kJ/mol. On to TGGATCACGTGTATTA, for which the “relative binding free energy” value worked out at 0.879 kJ/mol. Under TCTGACACGTGTGCGG stands 0.335 kJ/mol; under ATCATCACGTGTGTTT, 0.586 kJ/mol. In the case of TTAAGCACGTGATTTT it was 0.46 kJ/mol; in that of AAGGTCACGTGATCAT, 1.13 kJ/mol; in that of GGTTACACGTGGCGAT, 0.293 kJ/mol. In the case of TTGTACACGTGTCCGT it was 0.46 kJ/mol; in that of ATCGCCACGTGGGAGG, 0.0418 kJ/mol; in that of GTGCTCACGTGAGGTC, 1.63 kJ/mol. Take ATTATCACGTGGATGA: the “relative binding free energy” value worked out at 1.09 kJ/mol. In the case of TAAGTCACGTGTTAGT it was 0.293 kJ/mol; in that of TGCGGCACGTGTGTTT, 0.167 kJ/mol; in that of GGCTACACGTGTCTGG, 0.628 kJ/mol. In the case of CTTTACACGTGGAGTT it was 0.753 kJ/mol. In the case of GCTGTCACGTGTGTTG it was 0.669 kJ/mol; in that of TGTATCACGTGGCTAG, -0.126 kJ/mol. Turning to TAGTACACGTGGAGAT, the “relative binding free energy” value was -0.0418 kJ/mol. In the case of TAATTCACGTGTGGCT it was 1 kJ/mol. In the case of GGGTACACGTGTATAA it was 0.377 kJ/mol. In the case of TCGTACACGTGTTTGA it was -0.167 kJ/mol.

AGATGCACGTGGCGAG: the “relative binding free energy” value was -0.0837 kJ/mol. In the case of CGTTGCACGTGCGGCG it was 0.377 kJ/mol; in that of GTTGTCACGTGCGGAG, 0.167 kJ/mol; in that of GTTGGCACGTGAAATT, 1.63 kJ/mol.

For the sequence GTGTACACGTGCTTGG, the “relative binding free energy” value was -0.0837 kJ/mol. Under TCTAGCACGTGATGTA stands 0.669 kJ/mol.
